# In ChEMBL document CHEMBL4888484, “Replenishing the malaria drug discovery pipeline: Screening and hit evaluation of the MMV Hit Generation Library 1 (HGL1) against asexual blood stage Plasmodium falciparum ,using a nano luciferase reporter read-out” (2022):
# In all, about 150,000 compounds went through this assay and about 540 (0.36%) showed an effect of 50% or more. This is one part of the list.
# System: Plasmodium falciparum
# Test: Primary screen in NF54 nanoGlo assay, in single point, at 2uM, 72h; a lower Z score goes with more inhibition
# Assay type: functional, Erythrocyte
# Details: timepoint 72 hour
SMILES,% Inhibition [%],Z score
CN(C)CCC1CCN(C(=O)N[C@H]2CCCC2(C)C)CC1,-5,0.76
C[C@H]1CN(C)CCN1CC(=O)N1CCC(c2ccccc2)=N1,2,-0.15
Cn1cccc1C(=O)N(CC1CCC1)CC(F)(F)F,-7,0.97
CCc1onc(C)c1NC(=O)NC[C@H]1CCC[C@@H]1O,-17,2.64
O=C(NCc1ccc(F)cc1)[C@@H]1COCC(=O)N1Cc1ccc(F)cc1,-3,0.54
Cc1ccsc1CNc1ccccc1C(=O)NCc1ncc[nH]1,2,-0.38
CC1(C)CN(Cc2c(Cl)cncc2Cl)CC[C@]1(C)O,-3,0.33
CC(C)NC(=O)NCCN1CCc2[nH]ncc2C1,10,-1.15
O=S(=O)(Nc1ccc2nc(N3CCCC3)sc2c1)c1ccccc1Br,-7,1.18
O=C(Nc1ccc(-n2cncn2)nc1)c1cc(Cl)ccc1F,-22,1.97
Cn1ccnc1CN1CC[C@@](C)(O)[C@@H](NC(=O)C2CCCC2)[C@@H]1c1cccs1,-6,0.94
Cc1cccc([C@H]2C[C@@H]2C(=O)Nc2cc(C(=O)O)[nH]n2)c1,-15,2.96
COCCCNC(=O)C(=O)NCc1cccnc1,2,-0.26
CC1(CNC(=O)Nc2ncc(Cc3ccccc3)s2)OCCCO1,-21,1.89
c1ccc(CN2CCN(c3cc4c(nn3)CCC4)CC2)cc1,-10,1.96
Cc1nn(C)c(C)c1NC(=O)N(C)Cc1ccsc1,15,-1.91
CC1CC(CCNC(=O)N2C[C@@H](F)[C@@H](F)C2)CCO1 (stereo not given in full),-5,0.61
CC1CN(C(=O)N[C@H]2C[C@H](c3cccc(C(F)(F)F)c3)C2)CC2(CCOC2)O1 (stereo not given in full),-6,0.61
Clc1ccccc1COc1ccc(CNC2CC2)cc1,-7,1.33
Cc1c(CC(=O)N2CCC[C@H]2CO)c2c(n1Cc1ccc(F)cc1)CCCC2=O,-1,0.23
O=C(Nc1ccc(Br)cc1)c1cccnc1-n1cc(-c2ccncc2)cn1,8,-1
CN(Cc1ccccc1N1CCOCC1)c1ncc(F)cn1,4,-0.67

SMILES,% Inhibition [%],Z score
CCCC(=O)Oc1ccccc1N(C(=O)CCC)S(=O)(=O)c1ccc2ccccc2c1,-3,0.61
O=C(NCc1cn(-c2cccs2)nn1)c1ccc(Cl)s1,12,-1.56
CC1CN(C(=O)[C@@H]2CCCO[C@H]2c2ccnn2C(C)C)c2cccnc2O1 (stereo not given in full),-1,0.2
CC1(C)OCCC1CNC(=O)NC1CC1(C)c1ccc(F)c(F)c1 (stereo not given),-4,0.86
Cc1cccc(NC(=O)CC2=Nc3ccccc3S(=O)(=O)N2)c1C,-2,0.27
Cc1cc(CN(C)Cc2cn3c(C)cccc3n2)n[nH]1,-11,1.49
C=CCS(=O)(=O)N1CC[C@H](C2CCN(c3ncccn3)CC2)C1,-19,2.01
COc1ccc(N)cc1N1CCCN(Cc2ccc(C(C)C)cc2)C1=O,-5,0.77
CCc1nc(-c2cc(NC(=O)c3ccc(Cl)cc3)c(C)s2)no1,-1,0.07
N#CCNC(=O)CNc1ccc(C(F)(F)F)c(Br)c1,-5,0.96
CCCCN(CCO)C(=O)Nc1cc(Cl)ccc1C,-8,0.87
N#Cc1ccc(NC(=O)N2CCC(F)(F)CC2)cn1,4,-0.71
Cc1cc(C)cc(NC(=O)CCNC(=O)c2cnccn2)c1,34,-3.82
COc1ccc(C(=O)N(Cc2cc(NC(=O)C3CCCC3)ccc2N(C)C)CC(C)C)cc1,-14,1.99
O=C(NCc1nnc2n1CCOCC2)c1cc(F)ccc1Cl,-7,0.69
CS(=O)(=O)CC1(CC(=O)NC2CC2c2cc(F)ccc2F)CC1 (stereo not given),-2,0.25
COc1ccc(NC(=O)c2c(C)nn(C)c2C)cn1,-14,1.96
CCOC1CC(CC(=O)Nc2cccc([C@@H](F)C(F)(F)F)c2)C1 (stereo not given in full),-19,2.39
CN1CC[C@@H]2CN(C(=O)NCCc3ccccc3)C[C@@H]21,-8,1.1
Cc1ccc(-c2nn(CC(=O)Nc3ccc(F)cc3)c3c2cnc2ccccc23)cc1,-7,1.17
Cc1cnc2c(Cl)c(C(=O)N(C)C[C@H](C)N3CCOCC3)nn2c1,-5,0.72
CN(C)CCn1c(=O)[nH]c2ccc(C(=O)NCCc3ccco3)cc21,-2,0.3

SMILES,% Inhibition [%],Z score
COc1cc2ccccc2cc1C(=O)Nc1nnn(C)n1,27,-3.7
c1ccc(Cc2nc(CNc3ncccn3)no2)cc1,-11,1.6
CCc1ccc(-c2cc(C(=O)Nc3ccc4nc(NS(C)(=O)=O)sc4c3)[nH]n2)cc1,-13,1.27
CCOc1cccc(CNC(=O)c2cn3c(n2)C(=O)N[C@H](c2ccc(OC)cc2)C3)c1,-7,1.26
CCN1C[C@H](CN(C)C(=O)NC2CCCC2)Oc2ccccc21,-6,1.14
COCCN1CCC2(CC1)OCc1ccccc12,-4,0.63
CCS(=O)(=O)CCN1C(=O)CN(Cc2ccc(C(F)(F)F)cc2)C1=O,-12,1.46
c1ccc2oc(CN3CCC4(CC3)OCCO4)nc2c1,3,-0.39
Cc1noc(C)c1C(=O)N[C@@H]1[C@H]2CCO[C@H]2[C@H]1Cc1ccccc1,-13,2.51
CCc1ccc([C@H]2CC(=O)Nc3n[nH]cc32)nc1,2,-0.21
CC[C@@H](C(=O)N1CCOCC2(CCC2)C1)c1ccccc1,5,-0.99
N#CCC[C@@](C#N)(c1ccccc1)C1CCN(Cc2ccccc2)CC1,-29,3.42
O=C(NC1CCCC1)c1n[nH]c2c1CCc1ccccc1-2,-18,1.58
C[C@@H]1OCCO[C@@H]1C(=O)Nc1nc2ccccc2n1CC1CC1,-1,0.14
O=C1CC(C(=O)N[C@H](CO)CC2CCCCC2)C1,-7,0.79
COc1ccccc1NC(=O)[C@H]1CCCN(c2ccnc(-c3cccc(F)c3)n2)C1,-18,2.12
Cc1cc(C)n2c(-c3cccnc3)nnc2n1,34,-4.41
CN(c1ccccc1)c1nnc(-c2ccc(NC(=O)c3cccs3)cc2)s1,-7,1.24
CCOc1cccc(-c2cc(C(=O)NC3CCN(C)CC3)c3ccc(Cl)c(C)c3n2)c1,0,-0.04
Cc1ncn(CC(=O)NCc2cncc(C3CC3)c2)c(=O)c1C,-8,1.43
CC(C)N(C(=O)c1cnn(CC(=O)NC2CCCCC2)c1)[C@H]1CCOC1,-2,0.3
Cc1cc2c(cc1S(=O)(=O)N1CCC(Cc3ccccc3)CC1)OCC(=O)N2,-4,0.65

SMILES,% Inhibition [%],Z score
COC(=O)c1n[nH]c2ccc(NS(=O)(=O)c3ccc4c(c3)CCCC4)cc12,3,-0.53
CCOc1ccc(Cc2nnc(N3CCOCC3)[nH]c2=O)cc1,-14,1.76
COc1ccc(CN2CCC[C@H]2c2nccs2)cc1Cl,4,-0.47
CC(C)c1noc(CN(C)CC[C@H]2CCS(=O)(=O)C2)n1,-13,1.43
CC(=O)N1CCc2ccc(OCc3ccc(C(=O)NCC4CC4)o3)cc2[C@@H]1c1ccccc1,-17,1.99
COc1ccc(S(=O)(=O)Nc2cccc(Cl)c2Cl)cc1C(=O)N1CCCCCC1,-31,3.6
Cn1cc(C2CCCN2CC(O)COc2ccc(F)cc2)cn1 (stereo not given),-10,0.82
Cc1ccsc1CN(Cc1ccc(F)cc1)C(=O)CN(CCN1CCCC1)C(=O)c1ccccc1F,-6,0.7
CC(C(=O)N1C[C@H](C)[C@@](C)(C(=O)O)C1)C1CC1 (stereo not given in full),-2,0.27
C[C@H](Nc1ccc2c(c1)CCO2)C(=O)N(CCC#N)c1ccccc1,-6,1.16
Cc1nc2c(c(N3CCCC3)n1)CCN(C(=O)c1cc(CC(C)C)no1)C2,-4,0.86
CC(C(=O)NCCCC1CCCN1C(=O)OC(C)(C)C)C1CC1 (stereo not given),-7,0.62
O=C(NCc1ccccc1)C1CCC(Cn2c(=O)c3ccccc3n(Cc3cccnc3)c2=O)CC1 (stereo not given),0,0.05
NC(=O)[C@@H]1COCCN1Cc1ccc(OCc2ccccc2F)nc1,1,-0.21
CC(=C(F)C(=O)N1CCN(Cc2ccnn2C)CC1)C1CC1,-6,1.21
CC(C)c1[nH]ccc1C(=O)NC1(c2ccccc2)COC1,0,-0.06
Cc1noc2ncc(C(=O)N3CCC[C@H]3c3ccc(C(C)(C)C)cc3)cc12,-3,0.6
C[C@H](NC1CCCCCC1)c1ccc(S(N)(=O)=O)cc1F,-6,0.92
C[C@H]1CN(Cc2ccccc2OCC(=O)O)CC[C@]1(O)C1CC1,-8,1.62
